Laboratory results from the supplement of paper PMC8728848.
This is one part of the list.

Experiments:
Assay in all cases: glycan array binding signal (z-score within array); higher = stronger binding
Details in all cases: glycan notation: IUPAC condensed, linker removed
[1] = biological target: Gal3S(b1-3)[Fuc(a1-4)]GlcNAc
Outline: (§1)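 Glycan array data came from 3228 arrays in the Consortium for Functional Glycomics database, and only arrays with an available protein sequence were kept. Glycan names were put into IUPAC-condensed notation, and columns mapping to the same glycan were averaged. The binding signal is a within-array Z-score, averaged across arrays of one protein sequence run at different concentrations or buffers and across linkers. A negative Z-score can be read as non-binding.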

[2] = biological target: Gal3S(b1-4)Glc
Outline: as §1

[3] = biological target: Gal3S(b1-4)Glc6S
Outline: as §1

[4] = biological target: Gal3S(b1-4)GlcNAc
Outline: as §1

[5] = biological target: Gal3S(b1-4)[Fuc(a1-3)]Glc6S
Outline: as §1

[6] = biological target: Gal3S(b1-4)[Fuc(a1-3)]GlcNAc
Outline: as §1

[7] = biological target: Gal3S(b1-4)[Fuc(a1-3)]GlcNAc6S
Outline: as §1

[8] = biological target: Gal3S4S(b1-4)GlcNAc
Outline: as §1

[9] = biological target: Gal3S6S(b1-4)GlcNAc
Outline: as §1

[10] = biological target: Gal3S6S(b1-4)GlcNAc6S
Outline: as §1

[11] = biological target: Gal4S(b1-4)GlcNAc
Outline: as §1

[12] = biological target: Gal4S6S(b1-4)GlcNAc
Outline: as §1

[13] = biological target: Gal6P(b1-4)GlcNAc
Outline: as §1

[14] = biological target: Gal6S(b1-3)GlcNAc
Outline: as §1

[15] = biological target: Gal6S(b1-3)GlcNAc6S
Outline: as §1

[16] = biological target: Gal6S(b1-4)Glc
Outline: as §1

[17] = biological target: Gal6S(b1-4)Glc6S
Outline: as §1

[18] = biological target: Gal6S(b1-4)GlcNAc
Outline: as §1

[19] = biological target: Gal6S(b1-4)GlcNAc6S
Outline: as §1

[20] = biological target: GalNAc(a1-3)Gal
Outline: as §1

[21] = biological target: GalNAc(a1-3)GalNAc
Outline: as §1

[22] = biological target: GalNAc(a1-3)GalNAc(b1-3)Gal(a1-4)Gal(b1-4)Glc
Outline: as §1

[23] = biological target: GalNAc(a1-3)GalNAc(b1-3)Gal(a1-4)Gal(b1-4)GlcNAc
Outline: as §1

[24] = biological target: GalNAc(b1-3)Gal
Outline: as §1

[25] = biological target: GalNAc(b1-3)Gal(a1-4)Gal(b1-4)GlcNAc
Outline: as §1

[26] = biological target: GalNAc(b1-3)Gal(a1-4)Gal(b1-4)GlcNAc(b1-3)Gal(b1-4)Glc
Outline: as §1

[27] = biological target: GalNAc(b1-3)Gal(a1-6)Gal(b1-4)Glc
Outline: as §1

[28] = biological target: GalNAc(b1-3)GalNAc
Outline: as §1

[29] = biological target: GalNAc(b1-3)GlcNAc
Outline: as §1

[30] = biological target: GalNAc(b1-4)Gal(b1-4)Glc
Outline: as §1

[31] = biological target: GalNAc(b1-4)GlcNAc
Outline: as §1

[32] = biological target: GalNAc(b1-4)GlcNAc(b1-2)Man
Outline: as §1

[33] = biological target: GalNAc(b1-4)GlcNAc(b1-2)Man(a1-3)[GalNAc(b1-4)GlcNAc(b1-2)Man(a1-6)]Man(b1-4)GlcNAc(b1-4)GlcNAc
Outline: as §1

[34] = biological target: GalNAc(b1-4)GlcNAc(b1-3)GalNAc(b1-4)GlcNAc
Outline: as §1

[35] = biological target: GalNAc(b1-4)GlcNAc6S
Outline: as §1

[36] = biological target: GalNAc(b1-6)GalNAc
Outline: as §1

[37] = biological target: GalNAc3S(b1-4)GlcNAc
Outline: as §1

[38] = biological target: GalNAc3S(b1-4)GlcNAc3S
Outline: as §1

[39] = biological target: GalNAc3S(b1-4)[Fuc(a1-3)]GlcNAc
Outline: as §1

[40] = biological target: GalNAc4S6S(b1-4)GlcNAc
Outline: as §1

[41] = biological target: GalNAc6S(b1-4)GlcNAc
Outline: as §1

[42] = biological target: Glc(a1-4)Glc
Outline: as §1

[43] = biological target: Glc(a1-4)Glc(a1-4)Glc(a1-4)Glc
Outline: as §1

[44] = biological target: Glc(a1-6)Glc(a1-6)Glc
Outline: as §1

[45] = biological target: Glc(a1-6)Glc(a1-6)Glc(a1-6)Glc
Outline: as §1

B1: LFA (Limax flavus) (protein)
chain: MSVLFLAASFLLLASFELVAAQGCPRQDPGDWIVIQRRLNADVNFYRGWADYKHGFGDLRCNFWLGNEKIHQLTSHGRYKLRVEFTFNNKSYFAEYSTFKILGEADKYKLQVGGYSGNAGDALTFHNGMAFSTNDRDNDADSIDCAKVYHGAWWYKTCHESNLNGKWGSKKYGEGLNWKAKTTFTATATSSLLKIKALK
Question: Which results are given for B1?
Answer: glycan array binding signal (z-score) [1]: -0.306; glycan array binding signal (z-score) [2]: -0.271; glycan array binding signal (z-score) [3]: -0.193; glycan array binding signal (z-score) [4]: -0.26; glycan array binding signal (z-score) [5]: 0.119; glycan array binding signal (z-score) [6]: -0.335; glycan array binding signal (z-score) [7]: -0.21; glycan array binding signal (z-score) [8]: -0.218; glycan array binding signal (z-score) [9]: -0.305; glycan array binding signal (z-score) [10]: -0.074; glycan array binding signal (z-score) [11]: -0.194; glycan array binding signal (z-score) [12]: -0.282; glycan array binding signal (z-score) [13]: 0.111; glycan array binding signal (z-score) [14]: -0.155; glycan array binding signal (z-score) [15]: -0.359; glycan array binding signal (z-score) [16]: 0.135; glycan array binding signal (z-score) [17]: -0.248; glycan array binding signal (z-score) [18]: -0.16; glycan array binding signal (z-score) [19]: -0.066; glycan array binding signal (z-score) [20]: 2.29; glycan array binding signal (z-score) [21]: 3.66; glycan array binding signal (z-score) [22]: 13.1; glycan array binding signal (z-score) [23]: 0.469; glycan array binding signal (z-score) [24]: -0.195; glycan array binding signal (z-score) [25]: -0.394; glycan array binding signal (z-score) [26]: -0.37; glycan array binding signal (z-score) [27]: -0.275; glycan array binding signal (z-score) [28]: 0.02; glycan array binding signal (z-score) [29]: -0.376; glycan array binding signal (z-score) [30]: -0.247; glycan array binding signal (z-score) [31]: -0.287; glycan array binding signal (z-score) [32]: -0.249; glycan array binding signal (z-score) [33]: 0.256; glycan array binding signal (z-score) [34]: -0.352; glycan array binding signal (z-score) [35]: -0.314; glycan array binding signal (z-score) [36]: -0.295; glycan array binding signal (z-score) [37]: -0.277; glycan array binding signal (z-score) [38]: 0.12; glycan array binding signal (z-score) [39]: -0.245; glycan array binding signal (z-score) [40]: 0.135; glycan array binding signal (z-score) [41]: -0.305; glycan array binding signal (z-score) [42]: -0.279; glycan array binding signal (z-score) [43]: -0.245; glycan array binding signal (z-score) [44]: -0.243; glycan array binding signal (z-score) [45]: -0.194
